Laboratory results from US20230131056A1 (Stanford University, published 2023).

T1: human PD-L2 on cells (Hep3B-hPDL2 cells; MC38-hPD-L2 cells) (human, UniProt Q9BQ51 20-273)
T1 construct: whole, on cells; also called Hep3B-OS8-hPD-L2; MC38-PD-L2
T1 sequence (looked up): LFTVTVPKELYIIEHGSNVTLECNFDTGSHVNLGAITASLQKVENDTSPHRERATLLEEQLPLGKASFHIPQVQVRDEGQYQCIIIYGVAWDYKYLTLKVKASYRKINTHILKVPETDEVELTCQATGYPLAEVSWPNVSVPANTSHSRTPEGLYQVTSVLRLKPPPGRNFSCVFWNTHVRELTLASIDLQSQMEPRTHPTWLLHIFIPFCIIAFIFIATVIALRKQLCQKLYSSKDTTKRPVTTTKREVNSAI

B1: wild type PD-1-Fc fusion protein (Fc fusion)
chain: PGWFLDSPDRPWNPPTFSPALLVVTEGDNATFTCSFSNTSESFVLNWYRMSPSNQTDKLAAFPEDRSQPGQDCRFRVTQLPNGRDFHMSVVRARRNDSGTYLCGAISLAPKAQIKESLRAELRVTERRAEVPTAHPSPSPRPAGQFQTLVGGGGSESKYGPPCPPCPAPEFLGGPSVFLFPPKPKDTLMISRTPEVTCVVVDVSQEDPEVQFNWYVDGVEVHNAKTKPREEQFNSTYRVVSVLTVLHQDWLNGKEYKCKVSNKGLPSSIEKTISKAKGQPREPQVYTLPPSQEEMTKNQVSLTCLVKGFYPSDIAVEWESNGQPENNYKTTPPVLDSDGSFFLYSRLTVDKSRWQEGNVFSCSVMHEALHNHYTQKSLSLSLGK
notes: also called WT PD-1-Fc fusion protein; parent Fc fusion protein
B2: sPD-1 variant version 1-Fc fusion protein (Fc fusion)
chain: PGWFLDSPDRPWNPPTFSPALLVVTEGDNATFTCSFSNTSEGFVLNWYRMSPSNQTDKLAAFPEDRGQLGQDCRFRVTQLPNGRDFHMSVVRARRSDSGTYLCSAIVLAPKIQIKESLRVELRVTERRAEVPTAHPSPSPRPAGQFQTLVGGGGS[human IgG4 Fc with S228P (EU numbers) not printed]
notes: also called sPD-1 mutant version 1; sPD-1 mutant V1
B3: sPD-1 variant version 2-Fc fusion protein (Fc fusion)
chain: B2 chain with S96N
notes: also called sPD-1 mutant version 2; sPD-1 mutant V2

Assays:
[1] = biological target: T1, human PD-L2 on cells (Hep3B-hPDL2 …); assay: FACS binding on Hep3B-OS8-hPDL2 cells, detection with anti-human IgG-Alexa 488
[2] = biological target: T1, human PD-L2 on cells (Hep3B-hPDL2 …); assay: FACS on Hep3b-hPDL2 cells (legend paragraph 66; paragraph 459 names MC38-PD-L2), anti-human IgG-Alexa 488 detection
[3] = biological target: T2, mouse PD-L1 on parental MC38 cells (mouse, UniProt Q9EP73); assay: FACS on parental MC38 cells (express mouse PD-L1 and mouse PD-L2), anti-human IgG-Alexa 488 detection
T2 construct: whole, on cells; the signal cannot be split between the two ligands; also called MC38 parental cells
T2 sequence (Q9EP73 19-290): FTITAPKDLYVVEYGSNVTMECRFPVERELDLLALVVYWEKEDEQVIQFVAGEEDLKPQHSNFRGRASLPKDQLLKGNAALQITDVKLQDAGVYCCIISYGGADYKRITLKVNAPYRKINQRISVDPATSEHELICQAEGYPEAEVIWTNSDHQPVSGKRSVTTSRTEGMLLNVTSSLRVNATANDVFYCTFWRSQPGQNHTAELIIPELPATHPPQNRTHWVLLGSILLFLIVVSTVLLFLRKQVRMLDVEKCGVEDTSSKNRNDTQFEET

Row | Binder | EC50 (read off the curve) [1] [nM] | EC50 (read off the curve) [2] [nM] | binding result [3] | EC50 (read off the curve) [3] [nM]
1 | B1 | ~4 | ~2 | no binding (tested: about 10 uM) | –
2 | B2 | – | – | – | ~0.2
3 | B3 | – | – | – | ~0.2

Substitutions are numbered along the chain they refer to.
